# The supplement of paper PMC8728848
# This is one part of the list.
# B1: Siglec-9 (Homo sapiens), Q9Y336 (protein)
# chain: MLLLLLPLLWGRERAEGQTSKLLTMQSSVTVQEGLCVHVPCSFSYPSHGWIYPGPVVHGYWFREGANTDQDAPVATNNPARAVWEETRDRFHLLGDPHTKNCTLSIRDARRSDAGRYFFKMEKGSIKWNYKHHRLSVNVTALTHRPNILIPGTLESGCPQNLTCSVPWACEQGTPPMISWIGTSVSPLDPSTTRSSVLTLIPQPQDHGTSLTCQVTFPGASVTTNKTVHLNVSYPPQNLTMTVFQGDGTVSTVLGNGSSLSLPEGQSLRLVCAVDAVDSNPPARLSLSWRGLTLCPSQPSNPGVLELPWVHLRDAAEFTCRAQNPLGSQQVYLNVSLQSKATSGVTQGVVGGAGATALVFLSFCVIFVVVRSCRKKSARPAAGVGDTGIEDANAVRGSASQGPLTEPWAEDSPPDQPPPASARSSVGEGELQYASLSFQMVKPWDSRGQEATDTEYSEIKIHR
# Experiments:
# Test in all cases: glycan array binding signal (z-score within array); higher = stronger binding
# Conditions in all cases: glycan notation: IUPAC condensed, linker removed; mutation: R120K
# [1] = target: GlcNAc(b1-3)Gal(b1-4)GlcNAc(b1-3)Gal(b1-4)GlcNAc(b1-3)Gal(b1-4)GlcNAc(b1-3)Gal(b1-4)GlcNAc(b1-2)[GlcNAc(b1-3)Gal(b1-4)GlcNAc(b1-3)Gal(b1-4)GlcNAc(b1-3)Gal(b1-4)GlcNAc(b1-3)Gal(b1-4)GlcNAc(b1-6)]Man(a1-6)[GlcNAc(b1-3)Gal(b1-4)GlcNAc(b1-3)Gal(b1-4)GlcNAc(b1-3)Gal(b1-4)GlcNAc(b1-3)Gal(b1-4)GlcNAc(b1-2)Man(a1-3)]Man(b1-4)GlcNAc(b1-4)[Fuc(a1-6)]GlcNAc
# Method in brief: (§1)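 Negative Z-scores can be read as non-binding. The Z-score is calculated within each array and then averaged across arrays of one protein sequence at different concentrations or buffers and across linkers. Arrays, 3228 in all, were curated from the Consortium for Functional Glycomics database and kept only where the protein sequence was available.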
# [2] = target: GlcNAc(b1-3)Gal(b1-4)GlcNAc(b1-3)Gal(b1-4)GlcNAc(b1-3)GalNAc
# Method in brief: as §1
# [3] = target: GlcNAc(b1-3)Gal(b1-4)GlcNAc(b1-3)GalNAc
# Method in brief: as §1
# [4] = target: GlcNAc(b1-3)Gal(b1-4)GlcNAc(b1-3)[GlcNAc(b1-3)Gal(b1-4)GlcNAc(b1-3)]GalNAc
# Method in brief: as §1
# [5] = target: GlcNAc(b1-3)Gal(b1-4)GlcNAc(b1-6)[Gal(b1-3)]GalNAc
# Method in brief: as §1
# [6] = target: GlcNAc(b1-3)Gal(b1-4)GlcNAc(b1-6)[GlcNAc(b1-3)Gal(b1-3)]GalNAc
# Method in brief: as §1
# [7] = target: GlcNAc(b1-3)Gal(b1-4)GlcNAc(b1-6)[GlcNAc(b1-3)]Gal(b1-4)GlcNAc
# Method in brief: as §1
# GlcNAc(b1-3)GalNAc = target: GlcNAc(b1-3)GalNAc
# Method in brief: as §1
# GlcNAc(b1-3)Man = target: GlcNAc(b1-3)Man
# Method in brief: as §1
# [8] = target: GlcNAc(b1-3)[GlcNAc(b1-4)][GlcNAc(b1-6)]GlcNAc
# Method in brief: as §1
# [9] = target: GlcNAc(b1-3)[GlcNAc(b1-6)]Gal(b1-4)GlcNAc
# Method in brief: as §1
# [10] = target: GlcNAc(b1-3)[GlcNAc(b1-6)]GalNAc
# Method in brief: as §1
# [11] = target: GlcNAc(b1-4)Gal(b1-4)GlcNAc
# Method in brief: as §1
# GlcNAc(b1-4)GlcNAc = target: GlcNAc(b1-4)GlcNAc
# Method in brief: as §1
# [12] = target: GlcNAc(b1-4)GlcNAc(b1-4)GlcNAc
# Method in brief: as §1
# [13] = target: GlcNAc(b1-4)GlcNAc(b1-4)GlcNAc(b1-4)GlcNAc(b1-4)GlcNAc
# Method in brief: as §1
# [14] = target: GlcNAc(b1-4)GlcNAc(b1-4)GlcNAc(b1-4)GlcNAc(b1-4)GlcNAc(b1-4)GlcNAc
# Method in brief: as §1
# [15] = target: GlcNAc(b1-4)[GlcNAc(b1-6)]GalNAc
# Method in brief: as §1
# [16] = target: GlcNAc(b1-6)Gal(b1-4)GlcNAc
# Method in brief: as §1
# GlcNAc(b1-6)GalNAc = target: GlcNAc(b1-6)GalNAc
# Method in brief: as §1
# [17] = target: GlcNAc6S(b1-3)Gal(b1-4)GlcNAc
# Method in brief: as §1
# Kdn(a2-3)Gal(b1-3)GalNAc = target: Kdn(a2-3)Gal(b1-3)GalNAc
# Method in brief: as §1
# Kdn(a2-3)Gal(b1-3)GlcNAc = target: Kdn(a2-3)Gal(b1-3)GlcNAc
# Method in brief: as §1
# Kdn(a2-3)Gal(b1-4)Glc = target: Kdn(a2-3)Gal(b1-4)Glc
# Method in brief: as §1
# Kdn(a2-3)Gal(b1-4)GlcNAc = target: Kdn(a2-3)Gal(b1-4)GlcNAc
# Method in brief: as §1
# [18] = target: Kdn(a2-3)Gal(b1-4)[Fuc(a1-3)]GlcNAc
# Method in brief: as §1
# Kdn(a2-6)Gal(b1-4)GlcNAc = target: Kdn(a2-6)Gal(b1-4)GlcNAc
# Method in brief: as §1
# [19] = target: Man(a1-2)Man(a1-2)Man(a1-3)Man
# Method in brief: as §1
# [20] = target: Man(a1-2)Man(a1-2)Man(a1-6)[Man(a1-3)]Man
# Method in brief: as §1
# Man(a1-2)Man(a1-3)Man = target: Man(a1-2)Man(a1-3)Man
# Method in brief: as §1
# [21] = target: Man(a1-2)Man(a1-3)[Man(a1-2)Man(a1-6)]Man
# Method in brief: as §1
# [22] = target: Man(a1-2)Man(a1-3)[Man(a1-2)Man(a1-6)]Man(a1-6)[Man(a1-2)Man(a1-2)Man(a1-3)]Man
# Method in brief: as §1
# [23] = target: Man(a1-2)Man(a1-3)[Man(a1-2)Man(a1-6)]Man(a1-6)[Man(a1-2)Man(a1-2)Man(a1-3)]Man(b1-4)GlcNAc(b1-4)GlcNAc
# Method in brief: as §1
# [24] = target: Man(a1-2)Man(a1-3)[Man(a1-6)]Man(a1-6)[Man(a1-2)Man(a1-3)]Man(b1-4)GlcNAc(b1-4)GlcNAc
# Method in brief: as §1
# [25] = target: Man(a1-2)Man(a1-6)[Man(a1-3)]Man(a1-6)[Man(a1-2)Man(a1-2)Man(a1-3)]Man
# Method in brief: as §1
# [26] = target: Man(a1-2)Man(a1-6)[Man(a1-3)]Man(a1-6)[Man(a1-2)Man(a1-2)Man(a1-3)]Man(b1-4)GlcNAc(b1-4)GlcNAc
# Method in brief: as §1
# Man(a1-3)[Man(a1-6)]Man = target: Man(a1-3)[Man(a1-6)]Man
# Method in brief: as §1
binder,measurement,setting,value
B1,glycan array binding signal (z-score),[1],0.063
same,glycan array binding signal (z-score),[2],-0.299
same,glycan array binding signal (z-score),[3],0.35
same,glycan array binding signal (z-score),[4],0.153
same,glycan array binding signal (z-score),[5],0.1
same,glycan array binding signal (z-score),[6],-0.434
same,glycan array binding signal (z-score),[7],-0.452
same,glycan array binding signal (z-score),GlcNAc(b1-3)GalNAc,-0.395
same,glycan array binding signal (z-score),GlcNAc(b1-3)Man,-0.279
same,glycan array binding signal (z-score),[8],-0.348
same,glycan array binding signal (z-score),[9],-0.163
same,glycan array binding signal (z-score),[10],-0.393
same,glycan array binding signal (z-score),[11],0.178
same,glycan array binding signal (z-score),GlcNAc(b1-4)GlcNAc,0.101
same,glycan array binding signal (z-score),[12],-0.312
same,glycan array binding signal (z-score),[13],-0.217
same,glycan array binding signal (z-score),[14],-0.573
same,glycan array binding signal (z-score),[15],-0.512
same,glycan array binding signal (z-score),[16],-0.287
same,glycan array binding signal (z-score),GlcNAc(b1-6)GalNAc,-0.182
same,glycan array binding signal (z-score),[17],-0.404
same,glycan array binding signal (z-score),Kdn(a2-3)Gal(b1-3)GalNAc,0.274
same,glycan array binding signal (z-score),Kdn(a2-3)Gal(b1-3)GlcNAc,-0.056
same,glycan array binding signal (z-score),Kdn(a2-3)Gal(b1-4)Glc,0.194
same,glycan array binding signal (z-score),Kdn(a2-3)Gal(b1-4)GlcNAc,-0.341
same,glycan array binding signal (z-score),[18],-0.297
same,glycan array binding signal (z-score),Kdn(a2-6)Gal(b1-4)GlcNAc,0.125
same,glycan array binding signal (z-score),[19],-0.013
same,glycan array binding signal (z-score),[20],0.213
same,glycan array binding signal (z-score),Man(a1-2)Man(a1-3)Man,-0.111
same,glycan array binding signal (z-score),[21],-0.41
same,glycan array binding signal (z-score),[22],-0.436
same,glycan array binding signal (z-score),[23],-0.231
same,glycan array binding signal (z-score),[24],-0.826
same,glycan array binding signal (z-score),[25],-0.231
same,glycan array binding signal (z-score),[26],0.084
same,glycan array binding signal (z-score),Man(a1-3)[Man(a1-6)]Man,-0.048
